Measurements: article PMC9574860, “Chemical Toolkit for PARK7: Potent, Selective, and High-Throughput” (Journal of Medicinal Chemistry, 2022)
About 400 (5.1%) of roughly 7,900 compounds showed an effect of 50% or more. The list shows a part of the results.

Target: Parkinson's disease protein 7 (PARK7/DJ1) (human, UniProt Q99497)
Test: primary screen, percent inhibition; read as competition with a fluorescent probe by fluorescence polarization; higher = more effect of the substance
Settings: 100 µM
In short: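 Fluorescence-polarization probe displacement (JYQ-107, 20 nM final, 2 h) after 2 h preincubation of PARK7 (0.2 μM final) with each fragment at 100 μM final. Read-out ex/em 480/520 nm; remaining activity derived from FP signal loss relative to reference controls.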

Sequence of Parkinson's disease protein 7 (PARK7/DJ1) (Q99497 whole entry, looked up): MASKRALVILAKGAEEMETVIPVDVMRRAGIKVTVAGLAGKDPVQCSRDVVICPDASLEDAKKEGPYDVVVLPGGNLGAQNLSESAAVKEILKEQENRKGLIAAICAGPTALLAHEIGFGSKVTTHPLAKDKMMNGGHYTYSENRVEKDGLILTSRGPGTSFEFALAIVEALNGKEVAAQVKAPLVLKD

Row | Structure (SMILES) | Inhibition % [%]
1 | FC(F)Oc1ccc(C2CO2)cc1 (stereo not drawn) | 8
2 | CSc1ccccc1NC(=O)CCl | 4.72
3 | CC1CCCC(NC(=O)CCN2C(=O)CCC2=O)C1 (stereo not drawn) | 12.4
4 | Cc1cc(NC(=O)CN2CCSC2=O)no1 | 2.84
5 | C=CC(=O)N1CCC1c1ccccc1 (stereo not drawn) | 10.5
6 | C=CC(=O)N1CCc2cc(C)ccc21 | 2.47
7 | c1csc(C2OCCO2)n1 | 1.86
8 | CCOc1cccc(CNC(=O)CCl)c1 | 0.636
9 | Cl.Cl.NC1CCN(C(=O)C=Cc2ccnc3ccccc23)C1 (stereo not drawn) | 14.5
10 | O=S(=O)(C=Cc1ccc(Cl)cc1)NCc1ccco1 | 8.72
11 | O=C(O)c1ccc(NS(=O)(=O)C=Cc2ccccc2)cc1 | 6.88
12 | C=CC(=O)N[C@H]1[C@@H]2COC[C@@H]21 | 9.24
13 | C=CC(=O)N(C)Cc1n[nH]c(=O)o1 | 12.6
14 | C=CC(=O)N1CCC2OCCCC2C1 (stereo not drawn) | 7.7
15 | C=CC(=O)NCc1cccc(N2CCCS2(=O)=O)c1 | 6.66
16 | C=CC(=O)N1CCC(C(N)=O)c2ccccc21 (stereo not drawn) | 9.56
17 | O=C(CCl)N1CCN(S(=O)(=O)c2ccccc2)CC1 | 8.48
18 | Cc1ccc(N2C(=O)CN=C2S)cc1Cl | 7.52
19 | CSCC(C)NC(=O)c1ccc(C#N)[nH]1 (stereo not drawn) | 7.59
20 | CCCn1c(C)cc(C(=O)CCl)c1C | 56
21 | C=CC(=O)NCC1CC12CC2 (stereo not drawn) | 12.5

Row | Structure (SMILES) | Inhibition % [%]
22 | C=CC(=O)NC1CCN(c2ccn(C)n2)C1=O (stereo not drawn) | -2.57
23 | N#Cc1ccc(N2CC(O)CC2c2cccc(F)c2)cn1 (stereo not drawn) | 3.63
24 | Cc1ccsc1C=C(C#N)C(=O)NCCN1CCCCC1 | 8.55
25 | C=CC(=O)NCCc1cnc(C)cn1 | 5.67
26 | N#CN(CC1CCOC1)c1ccccc1F (stereo not drawn) | 6.11
27 | C=CC(=O)NC1(C(N)=O)CCOc2ccccc21 (stereo not drawn) | 6.88
28 | N#CC(=Cc1ccc2c(c1)OCCO2)C(N)=S | 14.6
29 | COC1CC(Nc2cccnc2C#N)C1(C)C (stereo not drawn) | 6.92
30 | CC(NC(=O)Oc1ccccc1)C(=O)O (stereo not drawn) | 10.1
31 | C=CC(=O)NCC1(C)CCOCC1 | 4.38
32 | O=C(CCl)NCCc1cnn(-c2ccccc2)c1 | 18.9
33 | C=CC(=O)Nc1ccc2c(c1)N(CC#N)CC2 | 10.2
34 | Cc1nonc1C(=O)CCl | 97.9
35 | Cc1nc(C=C(C#N)C(=O)NC(C)C)[nH]c1C | 9.05
36 | C=CC(=O)N1CCC(CNC(C)=O)CC1 | 25
37 | C=CC(=O)NC1COc2cccc(C)c2C1 (stereo not drawn) | 1.76
38 | C=CC(=O)N1CCCC1c1ccc(N(C)C)nn1 (stereo not drawn) | 14.7
39 | CCN(Cc1ccccn1)C(=O)c1cccnc1S | 10.5
40 | CC1CC1C(=O)N1CCC(S(=O)(=O)F)CC1 (stereo not drawn) | 72.2
41 | NS(=O)(=O)c1ccc(CCN2C(=O)CCC2=O)cc1 | 14.1
42 | CSc1ccccc1OCC1CO1 (stereo not drawn) | 7.25

Row | Structure (SMILES) | Inhibition % [%]
43 | O=c1[nH]nc(-c2ccc(F)cc2)o1 | 6.22
44 | C=CC(=O)NCc1ccc2[nH]cnc2c1 | 26.1
45 | COc1ccnc(C#N)c1 | 5.08
46 | O=C(O)c1ccoc1CS | 64.1
47 | C=CC(=O)N1CCC2(CC(OCC)C2)C1 (stereo not drawn) | 4.92
48 | C=CC(=O)NCc1cc2n(n1)CCCO2 | 18.2
49 | C=CC(=O)NCC1CCC2(CCOCC2)C1O (stereo not drawn) | 10.5
50 | O=S1(=O)C=CC(Nc2ccc(F)cc2)C1 (stereo not drawn) | 13.6
51 | COc1ccc(N(C#N)CC(=O)NC2CC2)cc1Cl | 6.85
52 | Cc1cc(C#N)cc(C(=O)O)n1 | 4.24
53 | O=C(CCl)Nc1cccc(C(=O)NC2CC2)c1 | 19.3
54 | O=C(NCCN1CCOCC1)Oc1ccccc1 | 4.01
55 | CCOc1ccc(S(=O)(=O)n2cccn2)cc1CC | 7.29
56 | Cn1cc(NS(=O)(=O)c2cccc(S(=O)(=O)F)c2)ccc1=O | 103
57 | CC1(C)CCCN1c1ccc(S(=O)(=O)F)cn1 | 1.78
58 | CC(C)c1ccc(CCNC(=O)CCl)cc1 | 22
59 | CC1(C)SC(=O)N(CC2(O)CCCCC2)C1=O | 9.19
60 | O=S(=O)(F)c1ccc(S(=O)(=O)Nc2cccc(F)n2)cc1 | 54.7
61 | Cc1ccc(O)c(C(=O)c2cnn(C(N)=O)c2)c1 | 6.48
62 | CC1(C)OB(c2ccc(SC(F)(F)F)nc2)OC1(C)C | 4.22
63 | COC(=O)c1ccc(CNC(=O)CCl)cc1 | 12.2

Row | Structure (SMILES) | Inhibition % [%]
64 | N#CC(=Cc1ccc(O)cc1)C(=O)NCc1ccco1 | 13.3
65 | CC1(C)OB(c2ccc3c(c2)CCCNC3=O)OC1(C)C | 23.6
66 | O=C1SCCN1CCC(=O)N1CCOc2ccccc21 | 4.72
67 | C=CC(=O)N1CCC(c2nc(C(=O)O)cs2)CC1 | 3.5
68 | Cc1ccc(S(=O)(=O)NC(=O)CCl)cc1 | 12.1
69 | COC(=O)C1CC(S(=O)(=O)F)CN1C(=O)C1CCOCC1 (stereo not drawn) | 9.64
70 | Cc1ccc(B2OC(C)(C)C(C)(C)O2)cn1 | 2.59
71 | CNC(=O)C1CCN(C(=O)CCl)CC1 | 8.41
72 | C=CC(=O)N1CCOC(C)(CC)C1 (stereo not drawn) | 0.755
73 | Cc1ccc([N+](=O)[O-])cc1NC(=O)CCl | 18.4
74 | O=C1CCC(=O)N1CCN1CCSC2(CCCCC2)C1 | 6.74
75 | C=CC(=O)Nc1cnc(C)s1 | 16.4
76 | CCc1nc(C)cn1S(=O)(=O)c1ccc(OC)c(C)c1 | -0.95
77 | C=CC(=O)NCC1CCC(F)CC1 (stereo not drawn) | 1.56
78 | N#CC(=Cc1ccc(O)cc1)C(N)=S | 5.65
79 | C=CC(=O)N1CC(C)OC2(CCOCC2)C1 (stereo not drawn) | 10.9
80 | CC1(C)OB(c2ccc3c(c2)C(=O)NC3)OC1(C)C | 7.34
81 | O=C(NCc1ncccc1F)c1cccnc1S | 21
